Measured values reported in PubChem BioAssay AID686971 (National Center for Advancing Translational Sciences (NCATS), 2013).
The whole screen tested about 360,000 compounds, of which about 7,500 (2.1%) were called active. Inconclusive means that the source gave no clear call. Such entries were picked first, then a sample of the others. Calls follow the shape of the dose curve; as a rule, active = well fitted cell-killing curve with a large enough effect; inconclusive = small, poorly fitted or top-dose-only effect, or effect the other way, or another doubt; inactive = no such curve, though single readings can be large or run the other way. Potencies of inconclusive entries are left out as doubtful fits.

Assay: qHTS for induction of synthetic lethality in tumor cells producing 2HG: qHTS for the HT-1080-IDH1KD cell line;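 as to activity, negative = toxicity: 0% = DMSO wells and -100% = cell-free medium wells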
Conditions: HT-1080 IDH1 knockdown viability, ATP luminescence, 48 h; activity, negative = toxicity: at 46.1 µM (top of the series) unless noted
How it was run: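 HT-1080-IDH1KD cells (IDH1 knocked down), 750/well in RPMI with 5% FBS, treated with compound 48 h at 37 degrees C. Viability by CellTiter-Glo luminescence, normalised to DMSO and no-cell wells; concentration-response curves classed.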
Potency is read from the fitted curve at half-maximal effect; tags tell the direction and shape of the fitted curve.

Compound	activity, negative = toxicity	Potency
COc1ccc(OC)c(NC(=O)CN2C(=O)c3ccccc3S2(=O)=O)c1	inactive: 2.94%	–
Cc1ccnc2nc(C(=O)OCC(=O)NCCc3ccccc3)nn12	inactive: -8.73%	–
COc1ccc(NC(=O)Cn2nc(C(F)(F)F)c3c2CCCC3)cc1OC	–	inconclusive [cytotoxic, single point]
CCc1cccc(CC)c1NC(=O)C(CC)Sc1nc2ccncc2[nH]1 (centres undefined)	inactive: -1.25%	–
C/C(=N\Nc1nc2ccccc2s1)c1cccs1	–	inconclusive [cytotoxic, single point]
COc1ccc(S(=O)(=O)Nc2ccc3ccccc3c2)cc1C	–	inconclusive [cytotoxic, single point]
COc1ccc(C(=O)CC(SCC(NC(C)=O)C(=O)O)c2ccc(Cl)cc2)cc1OC (centres undefined)	inactive: 10.8%	–
COc1ccc(CNc2ncnc3c2[nH]c2cc(OC)c(OC)cc23)cc1	–	inconclusive [cytotoxic, single point]
CCCN(CC1CCCO1)C(=O)c1cc(COc2ccc(F)cc2F)on1 (centres undefined)	inactive: 10.3%	–
CCN(CC)c1nc(C#N)nc(N(CC)CC)n1	inactive: -1.09%	–
CCNc1nc(SCC(=O)Nc2ccc(Cl)c(Cl)c2)nc(N2CCOCC2)n1	–	inconclusive [cytotoxic, partial curve]
CNC(=S)NNC(=O)Cc1ccc(OC)c(OC)c1	inactive: 3.5%	–
Cc1ccc(NC(=O)CSCC(=O)Nc2cccc(S(=O)(=O)N3CCCCCC3)c2)cc1	–	inconclusive [cytotoxic, single point]
Cc1ccc(F)cc1-c1cc(C(=O)NCc2cc(C(F)(F)F)cc(C(F)(F)F)c2)[nH]n1	–	inconclusive [cytotoxic, single point]
Cc1ccc(S(=O)(=O)/N=C2/NC(=O)/C(=C/c3ccccc3)S2)cc1	–	inconclusive [cytotoxic, partial curve]
Cc1nc(NC(C)c2ccccc2)c2oc3ccccc3c2n1 (centres undefined)	–	inconclusive [cytotoxic, single point]
Cc1cc(C)cc(NC(=O)CSc2nnc(CNC(=O)c3ccco3)n2C)c1	inactive: -3.36%	–
COc1cc(Cn2c(-c3nonc3N)nc3ccccc32)ccc1C	–	active: 1.84 µM
Cc1cc(C)nc(Nc2nc(C(N)CCc3ccccc3)cs2)n1 (centres undefined)	–	inconclusive [cytotoxic, single point]
Cc1cccc(C(=O)NC(=S)Nc2cccc3nc(C)ccc23)c1	inactive: 13.4%	–
O=C(Nc1ccc(NS(=O)(=O)c2ccccc2)cc1)c1ccccc1	–	inconclusive [cytotoxic, single point]
CN(O)C(=S)c1ccccc1	–	inconclusive [cytotoxic, partial curve]
CCOC(=O)[C@]12CCC=C1N(Cc1cccc3ccccc13)C(=O)[C@H](CC(=O)NCC1CCCCC1)C2	–	inconclusive [cytotoxic, single point]
COc1ccc(C(C[N+](=O)[O-])c2c(C)cc3ccccn23)cc1 (centres undefined)	–	inconclusive [cytotoxic, single point]
COc1ccc(C(=O)NCCCSc2ccccc2)cc1F	inactive: 0.96%	–

Compound	activity, negative = toxicity	Potency
CCc1nc(SCC(=O)N2CCN(C(=O)c3ccco3)CC2)c2c3c(sc2n1)CCCC3	–	inconclusive [cytotoxic, single point]
CCOC(=O)c1ccc(/C=C2\c3ccccc3C(=O)N2c2ccccc2)cc1F	inactive: -0.477%	–
Cc1ccc(NS(=O)(=O)c2ccc(C(=O)NNC(=O)c3ccccc3O)cc2)cc1	–	inconclusive [cytotoxic, partial curve]
CC(=O)NC(=S)Nc1sc2c(c1C#N)CCCCC2	–	inconclusive [cytotoxic, single point]
COc1ccc(N(Cc2ccccc2)N=O)cc1	inactive: 25.4%	–
O=C(O)CCc1ccc(-c2ccc(Cl)cc2)o1	inactive: -0.761%	–
CCOC(=O)CSC1=C(C#N)C(=O)NC(c2ccc(OC)cc2)S1 (centres undefined)	inactive: 13.4%	–
CC(C)(C)NCC(=Cc1ccccc1)C(=O)c1ccccc1	–	active: 5.8 µM
O=C(CCS(=O)(=O)c1ccccc1)Nc1nc(-c2ccc(F)cc2)cs1	–	active: 20.6 µM
O=C(CCl)Nc1cn(-c2ccccc2)nc1-c1ccc(F)cc1	–	active: 4.61 µM
COC(=O)c1cccc(NC(=O)Nc2ccc(Cl)c(Cl)c2)c1	–	inconclusive [cytotoxic, single point]
CCN(c1ccccc1C)S(=O)(=O)c1nnc(NC(=O)c2ccco2)s1	–	inconclusive [cytotoxic, single point]
CCC1CCc2sc(C(=O)N(C)CC(=O)Nc3ccc(OC)cc3)cc2C1 (centres undefined)	inactive: 21.8%	–
COc1ccc(-c2ccc(CN3C(C(C)C)C(=O)N(Cc4cn(Cc5ccco5)nn4)CCS3(=O)=O)cc2)cn1 (centres undefined)	inactive: -3.17%	–
COC(=O)CC1C(=O)NCCN1C(=O)c1cc(OC)c(OC)cc1OC (centres undefined)	inactive: 0%	–
COc1cccc(N2C(N)=NC(N)=NC2(C)C)c1	–	active: 2.31 µM
O=C(Nc1cnn(Cc2ccc(F)cc2)c1)c1cc(-c2cccs2)on1	–	inconclusive [cytotoxic, partial curve]
COc1ccc(C2c3cc4c(cc3OC(NNC(N)=O)C2C)OCO4)cc1 (centres undefined)	–	active: 16.4 µM
O=C(CCCN1C(=O)/C(=C/c2ccccc2OC(F)F)SC1=S)Nc1cccnc1	inactive: -22.7%	–
COc1ccccc1-c1nnc(NC(=O)CCS(=O)(=O)c2ccccc2)o1	inactive: -18.8%	–
Cc1ccc(NS(=O)(=O)c2ccc(Cl)c(NC(=S)NC(=O)C3CCCCC3)c2)cc1Cl	–	inconclusive [cytotoxic, single point]
CC(C)Cn1c(SCC(=O)Nc2cccc(S(N)(=O)=O)c2)nc2ccccc2c1=O	–	inconclusive [cytotoxic, single point]
O=C(Nc1cccnc1)c1ccc(Cl)c(S(=O)(=O)N2CCCC2)c1	inactive: -1.38%	–
C/C(=N\NS(=O)(=O)c1ccccc1)c1cccc(NC(=O)c2cccc(Cl)c2)c1	–	inconclusive [cytotoxic, single point]
CCOC(=O)C1=C(C)NC(=S)NC1c1ccc(-c2cccc(Cl)c2C)o1 (centres undefined)	–	inconclusive [cytotoxic, partial curve]

Compound	activity, negative = toxicity	Potency
C=C(C)COc1ccc(-c2[nH]ncc2Oc2ccc(OC)cc2)c(O)c1	–	inconclusive [cytotoxic, single point]
O=C(CCc1ccccc1)Nc1cc(C(F)(F)F)ccc1Cl	inactive: -2.43%	–
C=CCN(CC=C)C(=O)c1ccc2nc(Cc3ccc(OC)c(OC)c3)oc2c1	–	inconclusive [cytotoxic, single point]
CCCCn1c(=N)n(CC(=O)c2ccc(Br)s2)c2ccccc21	–	inconclusive [cytotoxic, single point]
Cc1ccc(N=C2NC(=O)CC(C(=O)Nc3ccc4c(c3)OCO4)S2)cc1 (centres undefined)	–	inconclusive [cytotoxic, single point]
CC(C)(C)NC(=O)COc1ccc(S(=O)(=O)N2CCCC2)cc1	inactive: -5.16%	–
Cc1ccc2nc(-c3cccc(N)c3)[nH]c2c1	–	inconclusive [cytotoxic, single point]
N=c1c2c(-c3ccccc3)c(-c3ccccc3)n(Cc3ccccc3)c2ncn1CCCn1ccnc1	–	active: 23.1 µM
COc1ccc(/C=C/C(=O)c2ccc3c4c(cccc24)CC3)cc1OC	–	active: 16.4 µM
COc1cccc(N2CCN(C(=O)c3cc(-c4ccc(F)cc4)[nH]c3C)CC2)c1	–	inconclusive [cytotoxic, single point]
CCOC(=O)[C@]12CCC=C1N(CCC1=CCCCC1)C(=O)[C@H](CC(=O)NCC1CCCCC1)C2	–	inconclusive [cytotoxic, single point]
O=C(CNCC1CCCCC1)Nc1ccccc1N1CCCCC1	–	inconclusive [cytotoxic, single point]
COc1ccc(CCNC(=O)C2Cc3ccccc3C(=O)O2)cc1 (centres undefined)	–	inconclusive [rising, single point]
COc1ccc(C)cc1NS(=O)(=O)c1ccc2c(c1)NC(=O)C(C)S2 (centres undefined)	–	inconclusive [cytotoxic, single point]
CC1(C(=O)NS(=O)(=O)c2cccc(Cl)c2)CCN1C(=O)Cc1ccc(-c2ccccc2)cc1 (centres undefined)	inactive: -0.389%	–
O=S(=O)(c1ccc(OCC(O)CNC23CC4CC(CC(C4)C2)C3)c(Cl)c1)N1CCOCC1 (centres undefined)	–	active: 13 µM
O=C(CSc1ccc2ccccc2n1)N/N=C/c1ccc(O)cc1	–	inconclusive [cytotoxic, partial curve]
COc1ccc(NC(=O)c2sc(N3CCOCC3)nc2-c2ccccc2)c(OC)c1	–	inconclusive [cytotoxic, single point]
COc1ccc(F)cc1-c1cc(NC(C)=O)c2ncc(-c3cccc(C(F)(F)F)c3)n2c1	–	inconclusive [cytotoxic, single point]
CC(O)CN(CC(C)O)c1ccc2c(c1)Cc1cc([N+](=O)[O-])ccc1-2 (centres undefined)	–	inconclusive [cytotoxic, single point]
Cc1ccc(S(=O)(=O)N2CCCC2C(=O)OCc2ccco2)cc1 (centres undefined)	–	inconclusive [cytotoxic, single point]
O=C(Nc1cc(C(F)(F)F)ccc1-n1cncn1)c1ccc(-c2ccccc2)cc1	inactive: 7.82%	–
CSc1nc2c(C)c(C)c(C)c(C)c2[nH]1	–	inconclusive [cytotoxic, partial curve, poor fit]
O=C(NCCCSc1ccccc1)c1cccnc1	inactive: 1.21%	–
